Source: the supplement of paper PMC11417369
± gives the standard deviation of the averaged measurements. This is one part of the list.

The sequences below were run on PfAP2-I AP2 domain 3 (GST-tagged) (assay: gcPBM binding intensity (ln(normalized median fluorescence intensity)); higher = stronger DNA binding).
Method in brief: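 An Agilent 4 × 180k array of primer-extended double-stranded 36-bp intergenic genomic probes, with negative controls, was incubated for 1 h with GST-tagged P. falciparum DNA-binding domains expressed in E. coli. Alexa488 anti-GST antibody detected bound protein, scanned at 488 nm. Binding intensity is the highest Masliner-normalised natural-log median intensity across replicate spots of either probe orientation.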

| Sequence | gcPBM binding intensity (ln) |
| --- | --- |
| TCATACATTTTCCTTGCACACATTTATAATTAATGG [CACACA_site4511] | 8.65 ± 0.59 |
| AACAAACACAGACACACACACACACTAATATGATTA [CACACA_site8770] | 8.01 ± 0.44 |
| ATATACTATTATGTGTGTACATAATAATTTATTATA [XGTACX_site3776] | 7.84 ± 0.37 |
| TAAAACAAAAAAAAGATGCACTATTTATTTTATTAT | 9.9 ± 0.23 |
| TATTCCTTCTACAATTAAATAATTATAATAAATATA [GTGCAC_negctrl_site26] | 7.9 ± 0.16 |
| GTATCATTAAATTATTGTACATATATATATATATAT [XGTACX_site8809] | 9.42 ± 0.48 |
| TATTTTTGTATATATTTATTCTTATTTTACAGGAAA [TGCATGCA_negctrl_site472] | 8.02 ± 0.014 |
| AACAAAAATAGAAACACACATACATTGGTTTTCTTT [CACACA_site2534] | 7.84 ± 0.95 |
| ACATTTAAGTTTAGCTGTACATATTCATCATAATTA [XGTACX_site37] | 7.99 ± 0.37 |
| ATATCACATTCCACGGTACACACTAAAAGAAAAATC [CACACA_site3611] | 8.36 ± 0.47 |
| GCGGGTTTATCTTTCGCACACCTTACATTTTAGAAT [CACACA_site2015] | 8.32 ± 0.59 |
| AGTTTTATGTAGTGTTGTACTTTATACAAATATATT [XGTACX_site614] | 8.09 ± 0.44 |
| ATAAATCAAAGGCACACACACAAAAAAAAAAAAAAA [CACACA_site160] | 8.36 ± 0.16 |
| TGTTTTTTATATTACTGTACATGTTTTGGAATAATA [XGTACX_site4716] | 7.92 ± 0.53 |
| AAGAAAAAATATAATAATAATAAAATATATATAATA [TGCATGCA_negctrl_site475] | 7.29 ± 0.69 |
| TTTGTTTTTCATAGTGCACACATAACCAAAAATAGT [CACACA_site9030] | 11.3 ± 0.46 |
| TATTGTTTTGATTGATGTACATGTTTAAAATATATA [XGTACX_site8430] | 7.99 ± 0.071 |
| TAATCTATTTATATGTGTACCTATTTAGAAATGACA [XGTACX_site5709] | 7.79 ± 0.59 |
| AAAGTAAATTTAAGCACACACAACGAACTTTTATAC [CACACA_site7008] | 8.63 ± 0.23 |
| TGTTGTAAATATGTTTGTACATAAATATATTATTTA [XGTACX_site5442] | 7.71 ± 0.33 |
| TATATTTACATTGTAACACACATGAAATATATATAT [CACACA_site61] | 8.74 ± 0.21 |
| TTTTTTATTGTGATACGTATATTATTTTTTGATAAA [CACACA_negctrl_site1] | 7.92 ± 0.73 |

| Sequence | gcPBM binding intensity (ln) |
| --- | --- |
| TTAATTAATAGACACACACACATATAAATATAGATT [CACACA_site7143] | 7.82 ± 0.44 |
| AAAAAAAAATAATATTGTACACACATAAATTCTTTG [XGTACX_site4315] | 7.51 ± 0.47 |
| GTTTTATTAAAAATGTGTACTTAATTATGAAAAAAA [XGTACX_site4689] | 7.95 ± 0.28 |
| GTGTATTTTCTGCGCACACACATGCAAAAAGAAATA [CACACA_site1148] | 9.355 ± 0.021 |
| AAGAAAAAATAAACATGTACATAAATATATATATAT [XGTACX_site304] | 9.4 ± 0.46 |
| ATTTAATTTATAAAAACACACACAGGTAAAAAGGTG [CACACA_site8306] | 8.51 ± 0.5 |
| ATTTTTTTTTTTATGTGTACATATATTTTTTTAATT [XGTACX_site7921] | 8 ± 0.38 |
| CATACTGTGATAGCACCACACACGCAAAAGAGGGTA [CACACA_site8285] | 9.32 ± 0.17 |
| TAAGGCCCTTTTCATCGTACAGTAAAATATAAATAA [XGTACX_site1278] | 7.84 ± 0.2 |
| GAAAATTCTTAAGGCACACACATATATAATATATAC [CACACA_site569] | 10 ± 0.53 |
| AATTTAACCCATTTTATAATTATTACCACTATATAT [TGCATGCA_negctrl_site452] | 8.08 ± 0.73 |
| CAAATACATGTGTAAAGTACATATTAATAAGTCTTT [XGTACX_site6342] | 7.57 ± 0.53 |
| TACTGTGATAGCACCACACACGCAAAAGTGAGTATA [CACACA_site1109] | 9.45 ± 0.16 |
| TATATTTAGTAAAAAGGTACCATTCTTATTTATATT [CACACA_negctrl_site1165] | 7.42 ± 0.46 |
| TATATTAATAGACACACACACATATTTATATTTATA [CACACA_site6859] | 7.71 ± 0.41 |
| TTTCAGCCAAACGATAAACTACGACACTTGAACGAA [CACACA_negctrl_site1747] | 7.5 ± 0.52 |
| AATAATAGAAAAAGGTGTACTTATAAACATATACAC [XGTACX_site6921] | 8.18 ± 0.23 |
| ATATATTTTTTTTCTTCACACACATGAATTATATAT [CACACA_site9053] | 8.2 ± 0.68 |
| ATATATATATATATATGTACATATTATATATGAACG [XGTACX_site1585] | 9.59 ± 0.57 |
| GTAATTATTATTAATAGTACACACTATGGCATTTCA [XGTACX_site5192] | 7.8 ± 0.47 |
| GAAATTTTTAAATACAGTACACACATGGGTTTAAAT [XGTACX_site6124] | 7.9 ± 0.72 |
| ATACTTCAATCTATTTGTACATATTTTTTAAAACCA [XGTACX_site2328] | 8.17 ± 0.62 |

| Sequence | gcPBM binding intensity (ln) |
| --- | --- |
| ATAAAGCCATACAATACACACATTTGACATGTCCGT [CACACA_site7523] | 8.07 ± 0.73 |
| AATAATAAAAAATATACACACATATATAAATAAATA [CACACA_site6164] | 7.47 ± 0.58 |
| TATATATATATATATTGTACTAATTGTGCAAATGAG [XGTACX_site682] | 9.76 ± 0.67 |
| TAAGAAAAAAAATAATGTACATATGTATTTGAGAAA [XGTACX_site3569] | 7.71 ± 0.5 |
| AAAAAAAAAAAAAAAAAAAAAAAAAAATATATATAT [CACACA_negctrl_site271] | 9.82 ± 0.18 |
| TGCTACTTATAAATAGAACACACATAAGTGTATTTG [CACACA_site9253] | 7.59 ± 0.38 |
| ATATATACATATGGGTGTACATATGCACATATATAT [XGTACX_site8437] | 8.76 ± 0.63 |
| TTTAAAATAAATATTACACACAAAATATTAAAAAGC [CACACA_site2129] | 7.88 ± 0.71 |
| ACAAAAAAAAACGTGGTGCATTAATAATATTGTATA [GTGCAC_site9469] | 11.7 ± 0.3 |
| TAGTTAATATGAAAAAGTACACGTTTCAGTGAAAGT [XGTACX_site7402] | 8.18 ± 0.81 |
| AAAAAAAAAAAAACTTGTACATGTGATATTATCTAT [XGTACX_site6169] | 7.71 ± 0.49 |
| ATTTAATACATACATTCACACACACTAATTGTATAT [CACACA_site9361] | 8.05 ± 0.64 |
| TTAAATGTTCTATATACATGCAATGATATGTTTCTG [TGCATGCA_site317] | 7.58 ± 0.48 |
| TCAAAGTAGGCTTATATGCACACTTTGAAATATTAT [CACACA_site1920] | 9.165 ± 0.035 |
| ATAAGAAGGAACATAAATATATCATAAAAAAAAAAA [GTGCAC_negctrl_site169] | 7.84 ± 0.57 |
| TAAAATTTTTTATTCACACAAATATAGTTATATATA [CACACA_site5348] | 7.44 ± 0.45 |
| AAATTAATATAAATATGTACATAAATAATAAAATAT [XGTACX_site6131] | 7.83 ± 0.42 |
| GTTTTCCTTCCCTTTCCCCCTCAAAAAAAGGGAACA [TGCATGCA_negctrl_site436] | 9.61 ± 0.071 |
| AAGGAATAAAGAAGTTGTACATAATTTGTATCATCC [XGTACX_site3891] | 7.7 ± 0.54 |
| ATTTTTCAAACTTTAGTGCAATGAAAGAAAGAAAAA | 10.2 ± 0.32 |
| GGAGGTTGTTATAAAAGTACAAAAAGTTGCAATTTT [XGTACX_site7351] | 8.19 ± 0.54 |
| TCATTATATACAATATGTACATATATGTAATAAACA [XGTACX_site4611] | 7.86 ± 0.37 |

| Sequence | gcPBM binding intensity (ln) |
| --- | --- |
| AAAGAATTCATTATTTGTACTTAAATAAATAAATAA [XGTACX_site5932] | 7.68 ± 0.77 |
| AGAAAGAAAGAATACACACACACATATATATATATC [CACACA_site3744] | 7.9 ± 0.44 |
| AGCACACGCAGACACACACACACACGCACACGCACA [CACACA_site6306] | 8.15 ± 0.56 |
| AAAGGATATGCTTCATATATATATTGTTATATATGT [CACACA_negctrl_site1672] | 7.57 ± 0.5 |
| ATAACACAAAAAGGGGGTACAATAAAAAAAAAAAAA [XGTACX_site1652] | 8.72 ± 0.21 |
| TATTTATATAGGTATACACACATACAAATATGTAAA [CACACA_site7705] | 7.46 ± 0.42 |
| AATACCTATAATACAACACACAAGTAATATAAACCT [CACACA_site7661] | 7.92 ± 0.69 |
| TACACCCACATATATATACACACTTTTATTTAAATA [CACACA_site1596] | 8.15 ± 0.28 |
| AAAAAAAATAATGTTGCACACAACAACAAACAAAAA [CACACA_site3290] | 8.835 ± 0.049 |
| AATATATATATATGTGCACACATATATAATATGTAT [CACACA_site716] | 9.2 ± 0.58 |
| CAATATGGAAAATAAAGTACGCACACAAAAATTCTC [XGTACX_site4793] | 8.37 ± 0.49 |
| TAGATAAAATGAACATGTACTCATCTTAATATATAT [XGTACX_site34] | 7.63 ± 0.42 |
| TTATTCTAAAAATATACACACAACAACAAACAAACA [CACACA_site1543] | 8.63 ± 0.17 |
| ATGTGTTTCTTCAATTGTACTAAAAGGTATATATTG [XGTACX_site4608] | 7.93 ± 0.59 |
| ATACTATAATATAAAACACACATATGTACCTTCTAA [CACACA_site7323] | 7.8 ± 0.63 |
| ATTATTTAAATTTAACGTACGGAATAAGACATAGAT [XGTACX_site8622] | 8.39 ± 0.66 |
| TAGTAACTTGTATTCACACAAATTATATTATATTAC [CACACA_site5041] | 7.79 ± 0.22 |
| TATATAATATATAAATGTACTTTTGTCTTATATGAA [XGTACX_site7211] | 7.57 ± 0.26 |
| TTTTTTTTTTTTTTTTTTTTACAGAAAAATATTAAA [CACACA_negctrl_site128] | 8.09 ± 0.79 |
| AATCATTAAAGCATAATGTTTATGATCAATATGAAA [CACACA_negctrl_site887] | 7.41 ± 0.52 |
| TTCAGGTAATAACATTGTACATGTGTATCATAATTA [XGTACX_site6740] | 7.7 ± 0.56 |
| GAAATATTACAAAGTACATGCAACGAAAATTTCAGT [TGCATGCA_site608] | 7.89 ± 0.76 |
